The source of these data is PubChem BioAssay AID1362 (SRMLSC, 2008).

This is one part of the list. Shown are side measurements of this screen, not its main read-out; they come without a call. Compounds called inactive in the main read-out are mostly missing here.

A short description of the assay: growth inhibition of WT strain, primary screen, mitochondrial fusion inhibitor project, WT and mutant strains, chemical genetic (AID 1362). Also: tested in S. cerevisiae. The settings on record: mitochondrial fusion phenotypic screen, at 10 µM.
In the case of `COc1ccc(Cl)cc1C(=O)CSc1nnnn1C1CCCCC1`, the inhibition came to 43.3%. Consider `C=CCn1c(SCc2csc(C)n2)nc2sc3c(c2c1=O)CCCC3`, for which the inhibition amounted to 32.7%. The value for `CCOc1ccccc1NC(=O)C(NCC1CCCCC1)c1ccccc1` (stereo not given) was -3.31%. The value for `CCc1ccccc1NC(=S)NCCSc1ccc(Cl)cc1` was 60.8%; that for `O=C(c1ccc(COc2ccc(Cl)cc2)cc1)N1CCCCC1` was 47.7%; that for `CCCCc1ccc(NC(=S)NCCc2ccc(F)cc2)cc1` was 55%. For the compound `CCCCSc1cnn(-c2ccccc2)c(=O)c1SCCCC`, the inhibition amounted to 5.26%. On to `Cc1csc(NC(=O)c2cc(-c3ccccc3)nc3ccccc23)n1`, for which the inhibition stood at 34.3%. The figure for `Cc1cccc(OCc2n[nH]c(=S)n2C2CCCCC2)c1` is 38.7%; for `O=C(NCc1ccco1)c1cccnc1-c1nc2ccccc2s1` it is 12.4%; for `CCOC(=O)c1cnc2ccc(OCC)cc2c1N1CCN(c2ccccc2OC)CC1` it is 38.3%.

On to `CC1CCc2c(C(=O)Oc3cccc(-n4cnnn4)c3)csc2C1` (stereo not given), for which the inhibition is 21.9%. `CC(C)c1ccc(NC(=S)NCc2ccc3c(c2)OCO3)cc1`: the inhibition amounted to 29.4%.

In the case of `CSc1nc2ccc(NS(=O)(=O)c3cccc(Cl)c3Cl)cc2s1`, the inhibition amounted to 52.3%. The value for `O=C(CN1CCN(c2ncc(C(F)(F)F)cc2Cl)CC1)N1CCN(c2ncc(C(F)(F)F)cc2Cl)CC1` was 64.3%. The value for `N#C/C(=C\c1cccc(NC(=O)c2ccccc2Cl)c1)C(=O)NCCc1ccccc1` was 22.7%; that for `Cc1ccsc1C(=O)OCc1csc(-c2ccccc2)n1` was 51.7%.

In the case of `CN(C)c1cc[n+](CC(=O)Nc2ccc(Oc3ccccc3)cc2)cc1`, the inhibition was 74.4%.

Regarding `CCCCCCCSc1nsc(N)n1`, the inhibition came out at 51.3%. Consider `CC(NCC(O)COCCC12CC3CC(CC(C3)C1)C2)c1ccccc1` (stereo not given), for which the inhibition was 72.4%.

For the compound `O=[N+]([O-])c1ccc(/C=N/Nc2nc(N3CCCCC3)nc(N3CCCCC3)n2)o1`, the inhibition amounted to 48.9%. For `Cc1cc(C)nc(Nc2ncc(O)n2-c2ccccc2)n1`, the inhibition is -35.8%. The value for `CN(C)CCCN(C(=O)c1ccc2c(c1)CCCC2)c1nc2ccc(Cl)cc2s1` was 68.1%; that for `FC(F)(F)c1ccc(Cl)c(N/N=C/c2ccc(N3CCOCC3)s2)c1` was 39.7%. Take `O=S(=O)(NCCc1csc(-c2ccc(C(F)(F)F)cc2)n1)c1ccc2c(c1)OCCO2`: the inhibition came out at 43.4%. Take `Cc1cccc(N=N/C(=C\O)C(=O)c2ccc(Br)cc2)c1`: the inhibition came to 96.2%. For the compound `NCCc1c(-c2ccccc2)n(-c2ccccc2)c2ccccc12`, the inhibition is 37.5%. As for `CCC(=O)Nc1ccc(Br)c(Cl)c1`, the inhibition was -1.56%. For `CCCCN(CCCC)C1=Nc2ccccc2N/C1=C(/C#N)C(=O)OCC`, the inhibition was -6.03%. As for `COc1ccccc1-c1cc(C(F)(F)F)nc(N2CCCCC2)n1`, the inhibition is 42.5%. Take `CSC(=S)N/N=C(\C)c1ccc(Br)cc1`: the inhibition was found to be 39.7%.

On to `S=C(NCc1ccccc1)NC1CCCc2ccccc21` (stereo not given), for which the inhibition worked out at 65.5%. With `C=C(C)C1Cc2c(C)nn(-c3nc(C)cc(C)n3)c2C1` (stereo not given), the inhibition was 51%. As to `O=C(NC(=S)N1CCN(Cc2ccc3c(c2)OCO3)CC1)c1cccc(Br)c1`, the inhibition turned out to be 51.3%. Regarding `COc1ccc(CNCCc2ccc(Cl)cc2)cc1OCc1ccccc1`, the inhibition was 80.9%. For the compound `Cc1ccccc1NC(=S)NC(C)CCc1ccccc1` (stereo not given), the inhibition turned out to be 58.1%. For the compound `C=CCn1c(SCc2csc(-c3ccc(C)cc3)n2)nnc1-c1ccccc1OC`, the inhibition was determined as 41.7%. The value for `O=C(/C=C/c1ccc(Cl)cc1Cl)NCCSc1ccccc1` was 29.3%; that for `Cc1ccc(COn2c(-c3ccc(Cl)cc3Cl)nc3ncccc32)cc1` was 44.9%.

On to `CCOc1ccc(NC(=S)Nc2cccc3cnccc23)cc1`, for which the inhibition came out at 54.1%. In the case of `Cc1ccc(-c2nc(N)sc2-c2ccc(C)cc2)cc1`, the inhibition was 29.5%. `OCC1(CCOc2ccccc2)CCN(CC2=Cc3cc(Cl)ccc3OC2)CC1`: the inhibition was determined as 86.3%. Take `COc1cccc(NC(=S)N(CCCN2CCCC2)Cc2cccn2Cc2ccc(Cl)cc2)c1`: the inhibition is 20.1%. `O=C(Nc1nc(-c2ccccc2)cs1)c1ccc(Br)o1`: the inhibition amounted to 51.1%. The value for `CC(C)Cn1c(N)c(C(=O)NCC2CCCO2)c2nc3ccccc3nc21` (stereo not given) was 51.6%; that for `O=C(Nc1cccc(F)c1)c1cc(S(=O)(=O)NCCC2=CCCCC2)ccc1F` was 10.9%. On to `Cc1ccc(-c2cc(C(F)F)n3ncc(C(=O)Nc4c(C)nn(Cc5ccccc5Cl)c4C)c3n2)cc1`, for which the inhibition is 12.9%.

As for `O=C(NC(=S)Nc1ccc(CN2CCCCC2)cc1)c1cccc(OCc2ccccc2)c1`, the inhibition was determined as 64%. Take `Cc1ccc(/C(=N\O)c2oc3c(C)c4oc(=O)cc(C)c4cc3c2C)cc1`: the inhibition was -0.86%. As for `COc1ccc(OCCNC(=S)Nc2cccc3ccccc23)cc1`, the inhibition is 55.4%.

For the compound `Cc1ccccc1OCCSCc1nc2ccccc2[nH]1`, the inhibition turned out to be 59.4%. For `CC(=O)Nc1ccc(S(=O)(=O)NCC(=O)OCC(=O)N2CCc3ccccc32)cc1`, the inhibition is 3.77%. With `CSc1ccc(CN2CCC(CO)(Cc3ccc(Cl)cc3)CC2)cc1`, the inhibition was 54.5%. Consider `COc1ccc(-c2cc(C(=O)N3CCN(c4ncccn4)CC3)c3ccccc3n2)c(OC)c1`, for which the inhibition stood at 28.1%. As for `Cc1cccc(-n2ncc3c(N4CC(C)CC(C)C4)ncnc32)c1` (stereo not given), the inhibition turned out to be 23.3%. As for `COCCN(C(=S)Nc1ccc(C(C)C)cc1)C(C)c1cccs1` (stereo not given), the inhibition is -8.75%. Turning to `N#Cc1ccccc1Sc1ccccc1C(=O)Nc1ccc(Br)cc1`, the inhibition turned out to be 6.45%. Turning to `O=C(COC(=O)Cc1c(Cl)cccc1Cl)Nc1ccccc1-c1ccccc1`, the inhibition is -14.2%.

For the compound `CC1=C(OC(=O)c2ccccc2)C(C)(C)C(c2ccc(Br)cc2)OC1=O` (stereo not given), the inhibition came out at 41.5%. Consider `Cn1c(Oc2ccc3c(c2)OCO3)nc2c1c(=O)n(Cc1ccccc1)c(=O)n2C`, for which the inhibition is -0.56%. The value for `Cc1ccc(-c2nnc(-c3ccccc3)c(-c3ccccc3)n2)cc1` was 48%; that for `CC(NC(=O)COc1ccccc1-c1ccccc1)c1ccccc1` (stereo not given) was 5.14%; that for `Cc1cc(C)c(N2CCN(S(=O)(=O)N3CCCCCC3)CC2)c(C)c1` was 16.9%.

Consider `CCC(CO)[n+]1c(C)cc(/C=C2\Sc3ccccc3N2Cc2ccccc2)cc1C` (stereo not given), for which the inhibition was determined as 42.5%. `C/C(CCc1ccc2c(c1)OCO2)=N\N=C(/N)SC1CC(=O)N(c2ccc(Cl)cc2)C1=O` (stereo not given): the inhibition is 45%. With `Cc1nn(C(=O)C2CC2)c(C)c1Sc1ccc(Cl)cc1`, the inhibition is 31.1%. Regarding `CCN(CC)c1ccc2c(Cl)c(Br)c(=O)oc2c1`, the inhibition came to 67.2%. The figure for `N#CCC(=O)N/N=C/c1cc(-c2ccccc2)n(-c2ccc(Cl)cc2)c1-c1ccccc1` is -27.9%. For the compound `Cc1ccc(N(C(=O)c2ccccc2Cl)C2=NC(C)CS2)c(C)c1` (stereo not given), the inhibition is 10.4%. Consider `Oc1ccc(/C=N/N2CCN(C3c4ccccc4-c4ccccc43)CC2)c(O)c1`, for which the inhibition came to 95.4%. The value for `COC(=O)c1ccc(-c2ccco2)n1Cc1cccc(C)c1` was 22.1%; that for `Oc1ccc(N=Nc2c(O)ccc3ccccc23)cc1` was 54.1%; that for `O=C(/C=C/c1cccc(Br)c1)N1CCN(c2cccc(C(F)(F)F)c2)CC1` was 54.5%. The figure for `CC[C@@H](C)[C@H](NC(=O)OC(C)(C)C)c1nnc(S(=O)(=O)Cc2cc(C)ccc2C)o1` is 19.4%. In the case of `CCCOc1ccc(CSCCNC(=S)Nc2ccccc2)cc1`, the inhibition worked out at 30.2%.

Turning to `CC1Cc2ccccc2N1c1ncnc2c1nnn2Cc1ccccc1` (stereo not given), the inhibition came out at 42.6%. The value for `CCOC(=O)C1CCN(c2nc3ccccc3nc2C(C#N)C(=O)NCCc2ccccc2)CC1` (stereo not given) was 5.65%; that for `CCCCCCCSc1nnc(-c2ccccc2N)c(=O)[nH]1` was 60.1%; that for `CSc1nc2ccc(NS(=O)(=O)c3c(Cl)cccc3Cl)cc2s1` was 10.1%.

For the compound `CN(C)S(=O)(=O)N1CCN(CC(O)COc2ccc3cc(Br)ccc3c2)CC1` (stereo not given), the inhibition was found to be 97.6%. In the case of `c1ccc2c(c1)CC/C2=N/Nc1nc2ccccc2[nH]1`, the inhibition is 55.8%. `CC(c1ccccc1)N(CC(=O)NC1CCCCC1)S(=O)(=O)c1cccc(C(F)(F)F)c1` (stereo not given): the inhibition is -4.35%.

Consider `N=c1c2c(ncn1Cc1ccco1)Oc1c(ccc3ccccc13)C2c1ccccc1` (stereo not given), for which the inhibition came out at 40.3%.

For the compound `CC(C)OC(=O)c1cccnc1N1CCN(c2cccc(Cl)c2)CC1`, the inhibition turned out to be 68.5%. Turning to `CN(Cc1ccc(OC(F)F)cc1)Cc1nc2c(Br)cc(Br)cc2c(=O)[nH]1`, the inhibition worked out at 42.1%. Regarding `CCCCNc1c2c3c(cccc3n(C)c1=O)C(=O)c1ccccc1-2`, the inhibition turned out to be 17.6%. With `N#Cc1ccc(NC(=O)Nc2ccc(Cl)cc2)cc1`, the inhibition was 26.9%. Regarding `COC(=O)c1c(NC(NC(=O)C(C)(C)C)C(Cl)(Cl)Cl)sc2c1CCC2` (stereo not given), the inhibition stood at 35.7%. `COc1ccc(N=c2cc(-c3ccc(OC)cc3)oc3ccccc23)cc1`: the inhibition is 75.7%. `COC(=O)c1ccc(-c2sc3nc(N4CCOCC4)c4c(c3c2N)CCCC4)o1`: the inhibition came to 1.78%.

In the case of `Clc1cccc(Cl)c1/C=C/c1nc2ccccc2[nH]1`, the inhibition stood at 64.7%.

With `CCOC(=O)c1c(NC(NC(C)=O)C(Cl)(Cl)Cl)sc2c1CCCC2` (stereo not given), the inhibition was 21.9%.

On to `CCCCn1c(N2CCC(Cc3ccccc3)CC2)nc2c1c(=O)[nH]c(=O)n2C`, for which the inhibition was -2.4%.

On to `CCCc1nc(SCC(=O)N2CCC(Cc3ccccc3)CC2)c2c(=O)n(C)c(=O)n(C)c2n1`, for which the inhibition came out at 46.8%. For `Cc1ccc(Nc2ncccc2C(=O)NCc2cccs2)c(C)c1`, the inhibition is 66.9%.

Take `CCOC(=O)c1c(-c2ccc(OC)cc2)csc1/N=C/C1=C(O)CCCC1=O`: the inhibition was determined as 5.19%. The value for `Cc1cc(OCC(=O)Nc2ccncc2)c(C)cc1Br` was 51.8%; that for `Oc1ccc(Cl)cc1-c1cc(-c2cccc(Br)c2)n[nH]1` was 68.6%; that for `COc1ccc(OC)c(S(=O)(=O)Nc2ccc(O)c3ccccc23)c1` was 57.4%.

Turning to `N/N=C(/Cc1nc2ccccc2[nH]1)c1ccc([N+](=O)[O-])cc1`, the inhibition is 88.8%. `Cc1cccc(N2CCN(C(=O)c3ccc(Cl)c(S(=O)(=O)NCc4ccco4)c3)CC2)c1C`: the inhibition was 10.3%. As for `COc1cccc(OC)c1OCCCCN1CCCC1`, the inhibition turned out to be 4.58%. As to `Clc1ccc(-c2nnnn2-c2ccc(Cl)c(Cl)c2)cc1Cl`, the inhibition came to 74.8%. For the compound `N=c1c2c(n(Cc3ccccc3)c3c1CCC3)CCC2`, the inhibition was found to be 38%. Turning to `Cc1ccc(N=Cc2c(C)[nH]n(-c3nc4ccccc4[nH]3)c2=O)cc1`, the inhibition stood at 82%. On to `COc1ccc(Nc2nc(C(=O)N3CCc4ccccc4C3)cs2)cc1`, for which the inhibition worked out at 49.6%. Turning to `CC(C)c1nc(N2CCCC2)c(C#N)c2c1CCCC2`, the inhibition came out at 36.6%.

Take `COc1ccc(/C=N/Nc2cc(C)nc(-n3nc(C)cc3C)n2)cc1`: the inhibition is 22.6%. For `COc1ccc2cc3cc(C(=O)NCCN4CCc5ccccc5C4)sc3nc2c1`, the inhibition is 39.4%. On to `Nn1c(SCC(=O)Nc2ccc3c(c2)OCO3)nnc1-c1ccncc1`, for which the inhibition stood at 20.8%.
